Reference: patent US20090291088A1, “THERAPEUTIC COMBINATIONS OF ANTI-IGF-1R ANTIBODIES AND OTHER COMPOUNDS” (Biogen Idec MA Inc., priority 2008, published 2009)
Blank lines part the entries; values can stand above or below the molecule they belong to.

Experiments:
[1] = molecular target: IGF-1R (Homo sapiens, UniProt P08069); assay: Ligand blocking assay (RIA): 125I-IGF-1 / 125I-IGF-2 binding to immobilized IGF-1R; parameters: human IGF-1R(1-903)-Fc (denoted hIGF-1R-Fc, generated by Biogen Idec); conditions: for blocking of IGF-1 and IGF-2 binding to IGF-1R: 100 nM-0.01 nM antibody, IGF-1R-Fc
Text: Ligand blocking assay (RIA). […] Insulin (Arg-Insulin, Cat #01-207) was purchased from Upstate Cell Signaling Solutions (Lake Placid, N.Y. (now part of Millipore, Concord, Mass. (USA)). ^125I-rhIGF-1 (Cat # IM172), ^125I-rhIGF-2 (Cat# IM238) and ^125I-rhInsulin (Cat# IM166) were purchased from Amersham Biosciences (Piscataway, N.J.). AffiPure goat anti-human IgG, Fcγ fragment specific antibodies (Cat #109-005-098, Jackson ImmunoResearch, West Grove, Pa.) was used for IGF-1R-Fc capture. As detection antibody, goat anti-mouse IgG HRP (Cat #1030-05, Southern Biotech Birmingham, Ala.) was used.
Human insulin receptor α-subunit specific antibodies, Clone 83-14, (Cat #AHR0221, Biosource International, Inc., Camarillo, Calif.) and the 47-9 (Cat #E55502M, Biodesign International, Saco, M E) were used as positive controls blocking of insulin-insulin receptor binding experiments. Recombinant IGF-1R-Fc fusion protein was produced at Biogen Idec (Cambridge, Mass.).
As isotype matched mouse negative control antibodies, 2B8 (murine α-CD20.1gG,) and 2B8 mkm.G2a (murine α-CD20 MAb, IgG2a, Biogen Idec, Lot #NB3304-87, San Diego, Calif.) were used. The negative control for Fabs was R001-1B provided by Christilyn Graff (Biogen Idec, Cambridge, Mass.). PBS used in buffers was from BioWhittaker (Cat. # 17-513F, Walkersville, Md.).
Recombinant human IGF-1R (Histidine tagged version) or IGF-1R-Fc was coated onto IMMULON2 HB (high binding) Removawell strips (Dynex Technologies, Inc., cat. #6302) diluted with carbonate coating buffer pH 9.5 to a concentration of 250 ng/well. After overnight incubation at 4° C., the wells were washed three times with washing buffer (0.05% Tween 20/PBS) then blocked with blocking buffer (3% BSA/PBS) for one hour at room temperature. The blocking buffer was removed and the wells washed three more times. Antibody, Fab, or ligand preparations were diluted to desired concentration with dilution buffer (1% BSA/0.05% Tween 20/PBS) and plated at 50 μl per well in duplicate. After 45 minutes at room temperature, 100,000 cpm of either [125I] rhIGF-1 or [125I] rhIGF-2 in 50 μl dilution buffer was added per well. This was incubated at room temperature for one more hour. The wells were washed again three more times and left liquid free after the last wash. The air-dried wells were counted with the Isodata Gamma Counter.
Alternatively, Fabs were evaluated by a modified capture assay, where the IGF-1R-Fc was captured using anti-human IgG immobilized to a plate. Immobilization was carried out by overnight incubation of goat anti-human IgG, Fcγ fragment specific antibody (200 ng/well) in carbonate coating buffer. The wells were washed, blocked and 250 ng of IGF-1R-Fc was added per well.
The ligand blocking ability of the anti-IGF-1R antibody was determined by a solid phase RIA capture method as described in Example 3. […] After 1 hour of incubation at room temperature, the wells were washed and counted for bound radioactivity by a Gamma Counter. An isotype matched negative antibody control, IDEC-151 (human G4), was used. Percent (%) inhibition was calculated as =[1−(Ave.CPM with Ab)/(Ave.CPM with buffer)]×100%.

[2] = test system: Akt and p42/44 MAPK phosphorylation; assay: Downstream signaling in MCF-7 cells: phospho-Akt and phospho-p44/42 MAPK Western blot; assay type: cell-based, human
Method: To detect the effect on downstream signaling, cell lysates were generated as described in Example 4. For signaling experiments control and test antibodies were added after serum starvation at 100 nM, 15 nM, 5 nM and 1 nM in 350 μl of fresh serum free media and incubated for 1 hour at 37° C. […] Cells were lysed and recovered sample separated using a 4-12% Bis-Tris gel and immobilized to nitrocellulose (Invitrogen Corp.). The IGF-1R signaling pathway was detected with phospho-Akt at site Thr308 (Cell signaling Technologies, #4056 (Danvers, Mass. USA)) and phospho-p44/42 MAPK at site Thr202/Tyr204 (Cell signaling Technologies, #9101) and anti-rabbit IgG-HRP (Cell Signaling Technologies, #7071). Bands were visualized using ECL luminol reagent (Amersham Biosciences, #RPN2109) and autoradiography. Each blot was stripped of antibody and re-probed respectively for total Akt (Cell signaling Technologies, #9272) or total p44/42 MAPK (Cell signaling Technologies, #9102) and anti-rabbit IgG-HRP. Bands visualized using ECL luminol reagent and autoradiography.
The effect of antibody on down stream signaling events such as Akt and MAPK phosphorylation was determined. […] Receptor was detected with anti-phospho-IGF-1R site Tyr1131 (Cell Signaling Technologies, #3021) or anti-IGF-1RP (Santa Cruz Biotechnology, #SC-9038) and anti-rabbit IgG-HRP (Cell Signaling Technologies, #7071). […]

IGF Blocking IGF-1 ([1]; Fabs, 125I-IGF-1): ++ (>30%@1ug/ml) | IGF Blocking IGF-2 ([1]; Fabs, 125I-IGF-2): ++ (>30%@1ug/ml)
B1: M14-G11: anti-IGF1-R antibody, competitive blocker of IGF-1 and IGF-2 (antibody, V domains shown)
VH: EVQLLESGGGLVQPGGSLRLSCAASGFTFSNYPMYWVRQAPGKGLEWVSRISSSGGRTVYADSVKGRFTISRDNSKNTLYLQMNSLRAEDTAVYYCARDRWSRSAAEYGLGGYWGQGTLVTVSS
VL: DIQMTQSPDSLAVSLGERATINCKSSQSVLYSSNNKNYLAWYQQKPGQPPKLLIYLASTRESGVPDRFSGSGSGTDFTLTISSLQAEDVAVYYCQQYYSTWTFGQGTKVEIK
modifications: Antibody variable heavy chain sequence; Antibody variable light chain sequence

blocking of IGF-1 and IGF-2 binding to IGF-1R [1]: block both IGF-1 and IGF-2 binding
B2: M14-G11.G4.P: full-length human IgG4.P version of Fab M14-G11 (antibody, V domains shown)
VH: B1 VH
VL: B1 VL
inhibition of IGF-1 and IGF-2 mediated phosphorylation of Akt and p42/44 MAPK ([2]; MCF-7, 100, 15, 5 and 1 nM): inhibited

blocking of IGF-1 and IGF-2 binding to IGF-1R [1]: block both IGF-1 and IGF-2 binding
B3: M13-C06.G4.P.agly: full-length hinge-modified aglycosylated human gamma 4, kappa antibody with the binding domain of Fab M13-C06 (antibody)
heavy: EVQLLESGGGLVQPGGSLRLSCAASGFTFSIYRMQWVRQAPGKGLEWVSGISPSGGTTWYADSVKGRFTISRDNSKNTLYLQMNSLRAEDTAVYYCARWSGGSGYAFDIWGQGTMVTVSSASTKGPSVFPLAPCSRSTSESTAALGCLVKDYFPEPVTVSWNSGALTSGVHTFPAVLQSSGLYSLSSVVTVPSSSLGTKTYTCNVDHKPSNTKVDKRV[human IgG4 Fc with S228P T299A (EU numbers) not written out]
light: DIQMTQSPLSLSASVGDRVTITCQASRDIRNYLNWYQQKPGKAPKLLIYDASSLQTGVPSRFGGSGSGTDFSFTIGSLQPEDIATYYCQQFDSLPHTFGQGTKLEIKRTVAAPSVFIFPPSDEQLKSGTASVVCLLNNFYPREAKVQWKVDNALQSGNSQESVTEQDSKDSTYSLSSTLTLSKADYEKHKVYACEVTHQGLSSPVTKSFNRGEC
inhibition of IGF-1 and IGF-2 induced phosphorylation of Akt at Ser473 ([2]; MCF7, all concentrations tested (1-100 nM)): inhibited
